These are yes or no findings as the source states them, for the method shown. In cells and extracts the contact can be indirect. Some results given as binding are weak or reduced against the parent protein; the word gives no strength. For some assays here: Where a sequence is shown, tags or fusion partners need not be part of it.
Key:
[1] = biological target: endogenous DIP2A from murine brain lysate (mouse (endogenous in brain)) (UniProt Q8BWT5); assay: co-IP; endogenous proteins, murine brain lysate (lysis buffer A), antibodies overnight at 4 °C, Protein A/G-Agarose; which antibody precipitated is not told
[2] = biological target: endogenous cortactin from murine brain lysate (mouse (endogenous in brain)) (UniProt Q60598); assay: as above
[3] = biological target: FLAG-tagged full-length DIP2A (disconnected-interacting protein homolog 2 A) (UniProt Q8BWT5); assay: co-IP; HEK293 cells co-transfected with HA-cortactin and FLAG-tagged full-length or truncated DIP2A; IP with anti-FLAG antibody, blot for HA-cortactin
[4] = biological target: T1, FLAG-tagged truncated DIP2A(915-1,562) (UniProt Q8BWT5); assay: as above
T1 sequence: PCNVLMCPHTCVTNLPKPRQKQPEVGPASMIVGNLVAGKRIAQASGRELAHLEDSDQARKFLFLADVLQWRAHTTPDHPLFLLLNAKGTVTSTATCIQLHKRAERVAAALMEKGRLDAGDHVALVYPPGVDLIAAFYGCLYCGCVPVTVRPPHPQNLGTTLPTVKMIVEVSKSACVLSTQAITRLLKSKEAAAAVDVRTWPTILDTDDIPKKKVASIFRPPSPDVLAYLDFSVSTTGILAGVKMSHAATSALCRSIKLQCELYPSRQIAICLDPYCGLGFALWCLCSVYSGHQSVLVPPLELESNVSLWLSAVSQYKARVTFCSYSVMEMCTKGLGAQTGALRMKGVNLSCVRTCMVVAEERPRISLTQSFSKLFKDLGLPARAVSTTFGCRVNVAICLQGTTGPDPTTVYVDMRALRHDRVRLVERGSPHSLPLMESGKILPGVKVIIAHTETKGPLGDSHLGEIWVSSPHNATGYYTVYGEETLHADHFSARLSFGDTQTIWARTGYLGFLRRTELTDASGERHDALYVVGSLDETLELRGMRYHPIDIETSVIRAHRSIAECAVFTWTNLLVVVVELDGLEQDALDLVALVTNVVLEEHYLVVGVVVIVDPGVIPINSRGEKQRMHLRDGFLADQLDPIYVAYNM

By UniProt entry, the sequences of proteins in these tests, tags left out. Where a name states a change or a piece, a line headed by the entry shows the natural chain unless it says otherwise.
UniProt Q60598: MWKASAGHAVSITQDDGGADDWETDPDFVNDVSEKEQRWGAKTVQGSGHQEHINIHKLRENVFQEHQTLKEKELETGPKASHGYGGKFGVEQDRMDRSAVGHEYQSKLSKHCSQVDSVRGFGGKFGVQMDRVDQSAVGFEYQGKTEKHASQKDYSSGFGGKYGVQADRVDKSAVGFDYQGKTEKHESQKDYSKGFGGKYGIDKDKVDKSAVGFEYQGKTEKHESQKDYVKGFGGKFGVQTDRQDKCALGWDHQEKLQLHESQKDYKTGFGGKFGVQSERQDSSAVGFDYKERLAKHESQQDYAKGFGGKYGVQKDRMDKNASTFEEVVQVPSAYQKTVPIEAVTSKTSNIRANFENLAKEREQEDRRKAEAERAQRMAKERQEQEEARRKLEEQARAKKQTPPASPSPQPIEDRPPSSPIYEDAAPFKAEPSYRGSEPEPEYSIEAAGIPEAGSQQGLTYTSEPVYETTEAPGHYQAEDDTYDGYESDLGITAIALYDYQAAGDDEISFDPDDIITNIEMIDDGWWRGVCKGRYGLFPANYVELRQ
UniProt Q4ACU6: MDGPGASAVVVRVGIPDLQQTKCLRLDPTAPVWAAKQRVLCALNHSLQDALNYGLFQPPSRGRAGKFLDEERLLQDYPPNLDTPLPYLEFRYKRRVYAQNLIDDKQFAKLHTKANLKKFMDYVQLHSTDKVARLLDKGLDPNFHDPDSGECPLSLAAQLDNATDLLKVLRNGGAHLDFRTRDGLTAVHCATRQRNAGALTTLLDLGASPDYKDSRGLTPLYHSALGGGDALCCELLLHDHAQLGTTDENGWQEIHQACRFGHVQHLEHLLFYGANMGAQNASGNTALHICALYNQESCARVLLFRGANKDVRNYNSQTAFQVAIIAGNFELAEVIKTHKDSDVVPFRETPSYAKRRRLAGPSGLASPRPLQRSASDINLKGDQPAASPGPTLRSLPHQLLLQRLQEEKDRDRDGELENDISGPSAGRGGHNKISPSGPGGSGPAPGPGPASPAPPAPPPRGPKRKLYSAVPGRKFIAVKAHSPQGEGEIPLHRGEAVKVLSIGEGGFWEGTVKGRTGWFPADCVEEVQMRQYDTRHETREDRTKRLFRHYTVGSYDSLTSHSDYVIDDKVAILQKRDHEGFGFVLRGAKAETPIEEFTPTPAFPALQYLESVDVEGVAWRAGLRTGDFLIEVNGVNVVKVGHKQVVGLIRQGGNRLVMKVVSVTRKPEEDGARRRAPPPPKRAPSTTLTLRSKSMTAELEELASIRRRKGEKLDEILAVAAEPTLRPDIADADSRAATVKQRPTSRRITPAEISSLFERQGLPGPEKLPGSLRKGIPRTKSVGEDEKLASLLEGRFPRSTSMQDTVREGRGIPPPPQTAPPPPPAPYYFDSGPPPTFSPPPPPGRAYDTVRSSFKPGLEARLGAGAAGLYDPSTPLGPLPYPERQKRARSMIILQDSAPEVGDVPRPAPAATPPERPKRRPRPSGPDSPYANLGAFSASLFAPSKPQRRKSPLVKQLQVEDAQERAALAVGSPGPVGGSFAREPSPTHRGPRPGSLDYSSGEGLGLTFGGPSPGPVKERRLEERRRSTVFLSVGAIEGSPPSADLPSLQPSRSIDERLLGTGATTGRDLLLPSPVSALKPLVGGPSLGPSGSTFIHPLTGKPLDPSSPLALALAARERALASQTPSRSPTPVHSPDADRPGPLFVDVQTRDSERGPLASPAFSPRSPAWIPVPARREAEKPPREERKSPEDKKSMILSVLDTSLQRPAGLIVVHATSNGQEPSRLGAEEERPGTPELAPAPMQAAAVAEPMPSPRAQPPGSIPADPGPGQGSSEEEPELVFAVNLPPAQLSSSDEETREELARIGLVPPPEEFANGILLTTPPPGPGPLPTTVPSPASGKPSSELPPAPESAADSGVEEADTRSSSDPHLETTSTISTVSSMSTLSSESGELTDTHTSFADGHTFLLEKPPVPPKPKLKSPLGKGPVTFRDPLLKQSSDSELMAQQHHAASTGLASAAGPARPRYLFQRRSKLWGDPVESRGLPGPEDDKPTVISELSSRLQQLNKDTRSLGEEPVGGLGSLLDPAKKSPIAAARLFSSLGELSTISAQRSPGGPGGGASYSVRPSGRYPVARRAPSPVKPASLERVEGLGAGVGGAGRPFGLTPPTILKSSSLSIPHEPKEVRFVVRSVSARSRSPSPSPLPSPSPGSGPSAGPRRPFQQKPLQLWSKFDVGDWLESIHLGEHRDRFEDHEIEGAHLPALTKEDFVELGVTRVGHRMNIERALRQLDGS

[5] = biological target: T2, FLAG-tagged truncated DIP2A(321-914) (UniProt Q8BWT5); assay: as above
T2 sequence: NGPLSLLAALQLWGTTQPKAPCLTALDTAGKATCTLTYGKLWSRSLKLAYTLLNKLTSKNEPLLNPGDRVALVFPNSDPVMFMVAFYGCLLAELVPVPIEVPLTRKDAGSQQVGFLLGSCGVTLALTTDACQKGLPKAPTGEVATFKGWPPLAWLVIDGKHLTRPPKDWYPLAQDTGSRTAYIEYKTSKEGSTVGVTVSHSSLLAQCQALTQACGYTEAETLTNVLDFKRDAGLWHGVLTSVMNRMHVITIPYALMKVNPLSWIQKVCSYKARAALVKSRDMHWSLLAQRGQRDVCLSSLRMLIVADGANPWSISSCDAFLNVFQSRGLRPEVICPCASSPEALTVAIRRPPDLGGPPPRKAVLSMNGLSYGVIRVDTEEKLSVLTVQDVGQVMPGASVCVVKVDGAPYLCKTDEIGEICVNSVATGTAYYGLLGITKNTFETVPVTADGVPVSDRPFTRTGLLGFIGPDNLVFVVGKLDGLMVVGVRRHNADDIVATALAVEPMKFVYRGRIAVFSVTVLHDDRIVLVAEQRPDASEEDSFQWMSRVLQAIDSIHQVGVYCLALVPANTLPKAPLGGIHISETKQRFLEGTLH

[6] = biological target: GST-cortactin (the variant with the SH3 domain in the GST pull-down of Fig 4A) (UniProt Q60598); assay: pull-down; GST pull-down with GST-cortactin variants from E. coli on glutathione-sepharose (4 μg), incubated with 1 mg cell or brain lysate overnight at 4 °C (Fig 4A); only the target purified
[7] = biological target: T3, DIP2A(261-320) region with PXXP motifs (UniProt Q8BWT5); assay: pull-down; 'binding assay' of Fig 4B with DIP2A261-320; who was held is not told
T3 sequence: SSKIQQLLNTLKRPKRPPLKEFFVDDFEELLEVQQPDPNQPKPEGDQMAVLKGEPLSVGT

Q: For “endogenous SHANK3 (SH3 and multiple ankyrin repeat domains 3) from murine brain lysate (from UniProt Q4ACU6 1-1730)”, which binding [1] is on record?
A: binds

Q: What about the binding [2] of the same substance?
A: binds

Q: Which binding [1] does the source give for “endogenous cortactin from murine brain lysate (from UniProt Q60598 1-546)” here?
A: binds

Q: Which binding [3] does the source give for “HA-tagged cortactin (from UniProt Q60598 1-546)” here?
A: binds

Q: What about the binding [4] of the same substance?
A: no binding

Q: And the binding [5]?
A: no binding

Q: Which binding [6] does the source give for “DIP2A of the GST pull-down of Fig 4A (construct not stated) (from UniProt Q8BWT5 1-1523)” here?
A: binds

Q: Which binding [7] does the source give for “cortactin of the binding assays of Fig 4B and 4D (construct not stated) (from UniProt Q60598 1-546)” here?
A: binds

Reference: PMC6786517
